The list shows a part of the results. Rule as the data show it: active = 3.2 or more and inactive = the rest. Most of these values are background signal.
What was measured:
Experiment in all cases: enrichment score (SH2-bound / input frequency) (ratio); bacterial display of known human phosphotyrosine sites (pTyr-Var adds point mutants) read by sequencing; higher = stronger binding; tyrosines were phosphorylated by kinases first
Settings in all cases: peptide library: pTyr-Var
[1] = molecular target: SHP2 C-SH2 domain E139D
[2] = molecular target: SHP2 C-SH2 domain wild-type
[3] = molecular target: SHP2 N-SH2 domain L43F
[4] = molecular target: SHP2 N-SH2 domain T42A
[5] = molecular target: SHP2 N-SH2 domain T52S
[6] = molecular target: SHP2 N-SH2 domain wild-type

Measured: enrichment score
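Also: displayed peptides selected on beads carrying the immobilized SH2 domain, with library peptides lacking any tyrosine serving as negative controls.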

LRVGFYESDVM [A2M_Y708]
inactive: [1] 1.56 | [2] 1.39 | [3] 1.89 | [4] 1.8 | [5] 2.1 | [6] 1.74

YETVKYFNNER [ABCB7_Y345]
inactive: [1] 0.822 | [2] 0.939 | [3] 0.85 | [4] 1.22 | [5] 0.964 | [6] 0.727

GKAFIYASHIV [ZNF573_Y229]
inactive: [1] 1.6 | [2] 1.72 | [3] 1.73 | [4] 1.18 | [5] 1.15 | [6] 1.47

YETVKYINNER [ABCB7_Y345_F346I]
inactive: [1] 0.816 | [2] 1.26 | [3] 0.702 | [4] 2.67 | [5] 0.798 | [6] 1.08

GEIQEYGAPSD [ABCC1_Y1508]
inactive: [1] 0.476 | [2] 0.479 | [3] 0.475 | [4] 0.433 | [5] 0.459 | [6] 0.652

HEGKIYEFNQV [ZNF665_Y162_YF]
inactive: [1] 0.67 | [2] 0.475 | [3] 0.572 | [4] 0.472 | [5] 0.476 | [6] 0.99

EQQNMYRLKVL [ABCC6_Y372]
inactive: [1] 0.694 | [2] 0.684 | [3] 0.693 | [4] 0.666 | [5] 0.694 | [6] 0.778

NGPDVYVLPVT [AATK_Y93_L97V]
inactive: [1] 0.758 | [2] 0.619 | [3] 0.73 | [4] 0.624 | [5] 0.646 | [6] 0.675

QLLIEYPPEEV [ZZZ3_Y670_K669E]
inactive: [1] 1.03 | [2] 0.951 | [3] 0.818 | [4] 0.789 | [5] 0.885 | [6] 0.908

ADEDIYGVLPA [LYNtide_2014]
inactive: [1] 0.599 | [2] 0.879 | [3] 0.564 | [4] 0.547 | [5] 0.531 | [6] 0.788

FSSLGYPLPEG [ZSWIM4_Y87_P89L_YF]
inactive: [1] 0.727 | [2] 0.64 | [3] 0.544 | [4] 0.626 | [5] 0.64 | [6] 0.487

NQSVRYDSSLK [ABCC8_Y1353_L1349Q]
inactive: [1] 0.636 | [2] 0.393 | [3] 0.594 | [4] 0.533 | [5] 0.665 | [6] 0.666

ADPQEYIPLPA [JAKtide_2014]
inactive: [1] 0.59 | [2] 0.619 | [3] 0.669 | [4] 0.536 | [5] 0.644 | [6] 0.716

ADEQIYWQIAA [CSKtide_2014]
inactive: [1] 0.766 | [2] 0.836 | [3] 0.712 | [4] 0.734 | [5] 0.701 | [6] 0.992

VHKEGYNKLNQ [ZNF676_Y98]
inactive: [1] 0.854 | [2] 0.97 | [3] 1 | [4] 0.739 | [5] 0.765 | [6] 0.845

LALTVYADCLA [ABCA4_Y2063_G2059A]
inactive: [1] 0.973 | [2] 1.16 | [3] 0.989 | [4] 1.6 | [5] 0.966 | [6] 1.33

ATVQNYLPKCI [A2M_Y817_L815Q]
inactive: [1] 0.984 | [2] 0.815 | [3] 0.74 | [4] 0.607 | [5] 0.704 | [6] 0.934

FETVKYFNNER [ABCB7_Y345_YF]
inactive: [1] 0.826 | [2] 0.824 | [3] 0.887 | [4] 0.898 | [5] 0.761 | [6] 0.912

NGPDVYVLPLT [AATK_Y93]
inactive: [1] 0.784 | [2] 0.774 | [3] 0.773 | [4] 0.634 | [5] 0.627 | [6] 0.68

MSSHHYDFKKF [ZNF445_Y428_YF]
inactive: [1] 0.533 | [2] 0.801 | [3] 0.473 | [4] 0.365 | [5] 0.495 | [6] 0.555

AKAFIYASHIV [ZNF573_Y229_G224A]
inactive: [1] 1.02 | [2] 1.18 | [3] 1.15 | [4] 1.02 | [5] 0.946 | [6] 1.04

GKTFTYRSVFF [ZNF80_Y200]
inactive: [1] 0.968 | [2] 0.976 | [3] 0.974 | [4] 1.02 | [5] 1.22 | [6] 0.905

FNDSTYNQQLI [ZPLD1_Y198_YF]
inactive: [1] 0.698 | [2] 0.588 | [3] 0.682 | [4] 0.682 | [5] 0.687 | [6] 0.894

GGEAIYAAPFA [Abl_opt_1995]
inactive: [1] 0.867 | [2] 0.717 | [3] 0.687 | [4] 0.718 | [5] 0.639 | [6] 0.715

YNDSAYNQQLI [ZPLD1_Y198_T197A]
inactive: [1] 0.798 | [2] 0.578 | [3] 0.729 | [4] 0.59 | [5] 0.89 | [6] 0.599

FSQQTYYRVSN [ABCD1_Y180]
inactive: [1] 0.814 | [2] 1.07 | [3] 1.51 | [4] 0.978 | [5] 0.866 | [6] 0.835

MSSHHCDFKKF [ZNF445_Y428_Y428C_YF]
inactive: [1] 1.69 | [2] 1.27 | [3] 1.56 | [4] 1.38 | [5] 1.61 | [6] 1.53

YSSLGYPLPEG [ZSWIM4_Y87_P89L]
inactive: [1] 0.948 | [2] 2.89 | [3] 0.933 | [4] 1.6 | [5] 0.845 | [6] 0.834

LGLTVYADCLA [ABCA4_Y2063]
inactive: [1] 0.965 | [2] 1.04 | [3] 0.922 | [4] 1.26 | [5] 0.879 | [6] 1.2

AEEPIYIIVPA [BMXtide_2014]
inactive: [1] 1.64 | [2] 1.64 | [3] 1.46 | [4] 1.56 | [5] 1.88 | [6] 1.44

SGEKPYKCSVC [ZNF543_Y283_E287V]
inactive: [1] 0.703 | [2] 0.789 | [3] 0.837 | [4] 0.655 | [5] 0.731 | [6] 0.787

FDFKKYGKGLR [ZNF445_Y433_YF]
inactive: [1] 1.86 | [2] 1.34 | [3] 1.11 | [4] 1.13 | [5] 1.39 | [6] 1.63

ARDVIYIIIPA [FRKtide_2014]
active: [1] 6.7 | [2] 5.36 | [3] 5.79 | [4] 5.37 | [5] 6.01 | [6] 5.23

REGKIYEFNQV [ZNF665_Y162_H157R_YF]
inactive: [1] 0.887 | [2] 0.847 | [3] 0.986 | [4] 0.836 | [5] 0.976 | [6] 1.22

AHPIIYEIIEA [PYKtide_E_2014]
inactive: [1] 1.74 | [2] 1.52 | [3] 2.02 | [4] 1.71 | [5] 1.72 | [6] 2.19

QLLIKYPPEEV [ZZZ3_Y670]
inactive: [1] 1.31 | [2] 0.874 | [3] 1.03 | [4] 1.11 | [5] 1.35 | [6] 0.801

AEEEIYGEFEA [Src_opt_1995]
inactive: [1] 0.661 | [2] 1.19 | [3] 0.852 | [4] 0.89 | [5] 0.714 | [6] 1.15
